B1: ARHGAP23 (protein, UniProt Q69ZH9 1-1483)
chain: MNGVAFCLVGIPPRPEPRPPQLPLGPRDGCSSGRPLPWPGPRTLLLRKSLQDGFGFTLRHFIVYPPESAVHCILKEEENGGRGGGPSPRHRLEPMDTIFVKNVKDGGPAHRAGLRTGDRLVKVNGESIIGKTYSQVIGLIQNSDDTLELSIMPKDEDILQLAYSQDAYLKGNEPYSGEARSIPEPPPLCYPRKTYAPPTRAPAWATMVPEPISALPPDPRSPAAWSDPGSRVPSATRAHLDNSSLGMSQPRPSPGAFPHLPSESRTPRAFPEPGSRVLPSRLECQQALSHWLSNQIPRRAGERRCPAMPPRARSASQDRLEDVTTHHPWPCSTSQDALSQLGQEGWHRARSDDYLSRATRSAEALGPGALVSPRLERCGWASQRPSARTSACPSRDLTQAPPPSGLQGLDDIGYIGYRSYSPSFQRRTGLLHALSFRDSPFGGLPTFSLAQSPASFPPEASEPPRVVRPDPSTRALEPPAEDHRDEVVLRQKPPTGRKVQLTPARQMNLGFGDESPEPEARGERLGRKVAPLATTEDSLASIPFIDEPTSPSIDLQAKHVPASAVVSSAMNSAPVLGTSPSSPTFTFALSRHYSQDCSSIKAGRRSSYLLAITTERSKSCDDGLNTFRDEGRVLRRLPSRVPSLRVLRSFFTDGSLDSWGTSEDADAPSKRHSTSDLSDATFSDIRREGWLYYKQILTKKGKKAGGGLRQWKRVYAVLRARSLSLSKERREPGPAAAGAAAAGAGEDEAAPVCIGSCLVDISYSETKRRHVFRLTTADFCEYLFQAEDRDDMLGWIRAIRENSRAEGEDPGCANQALISKKLNDYRKVSHSSGPKADSSPKGSRGLGGLKSEFLKQTAVRGLRTQEQPPGSKEDSVAAPKTPWGINIIKKNKKAAPRAFGIRLEECQPATENQRVPLIVAACCRIVEARGLESTGIYRVPGNNAVVSSLQEQLNRGPSDINLQDERWQDLNVISSLLKAFFRKLPEPLFTDDKYNDFIEANRIEDSRERMKTLRKLIRDLPGHYYETLKFLVGHLKTIADHSEKNKMEPRNLALVFGPTLVRTSEDNMTDMVTHMPDRYKIVETLIQHSDWFFSDDEDKGERTPVDDKEPQSVPNIEYLLPNIGRTVPPSDPGSDSTTCSSAKSKGSWVPKKEPYAREMLAISFISAVNRKRKKRREARGLGSSTDDDSEQEAHKAAVGTQEPPEGQLPGPAAEEAPGRLSPPTAPDERPAADTRSIVSGYSTLSTMDRSVCSGTGGRRAGAGDEADDERSELSHVETDTEGGAGPGGRLSRRPSFSSHHLMPCDTLARRRLSRSRAEAEGPGAGTARACPRGPEPPGSASSSSQESLRPPAAAPALGSRPSRVEALRLRLRGTADDMLAVRLRRPLSPETRRRRSSWRRHTVVVQSPLTDLNFNEWKELGGGGPQESVGVRPHSDNKDSGLSSLESTKARASSAASLPSGDLGALQGLPQRRSAAARLHQCL
B2: ARHGAP24 (protein, UniProt Q8C4V1 1-747)
chain: MEERCESTESPQGQGRKNTKCGWLRKQGGFVKTWHTRWFVLKGDQLYYFKDEDETKPLGTIFLHGNKVIEHPCNEENPGKFLFDVVPGGERDRMTANHESYLLMASTQNDMEDWVKSIRRVIWGPFGGGIFGQKLEDTVRYEKRYGNRLAPMLVEQCVDFIRQRGLKEEGLFRLPGQANLVKELQDAFDCGEKPSFDSNTDVHTVASLLKLYLRELPEPVVPYAKYEDFLSCATLLSKEEEAGVKELMKQVKSLPVVNYNLLKYICRFLDEVQSYSGVNKMSAQNLATVFGPNILRPKVEDPLTIMEGTVVVQQLMSVMISKHDRLFPKDTEPQSKPQDGPNSNNNDGHKKATMGQLQNKENNNTKESPVRRCSWDKPESPQRSSVDNGSPTALSGSKTNSPRNSIHKLDISRSPPLMVKKNPAFNKGSGIVTNGSFSSSNAEGVEKPQTTPNGSLQARRTSSLKSSGTKMGTHSVQNGTVRMGILNTDTLGNSLNGRSMSWLPNGYVTLRDNKQKEPAGESGQHNRLSTYDNVHQQFSSMSLDDKHSVDSATWSTSSCEISLPENSNSCRSSTTTCPEQDFYVGNFEDPVLDGPPQDDLSHPGDYENKSDRRSVGGRSSRATSSSDNSETFVGNTSSNHSALHSLVSSLKQEMTKQKIEYESRIKSLEQRNLTLETEMLSLHDELDQERKKFTMIEIKMRNAERAKEDAEKRNDMLQKEMEQFFSTFGDLTVEPRRSERGNTIWIQ
B3: ECT2 (epithelial cell transforming 2) (protein, UniProt Q07139 1-913)
chain: MADDSVLPSPSEITSLADSSVFDSKVAEMSKENLCLASTSNVDEEMPQVEARVIMVQDAGKQEELLKALKTIKIMEVPVIKIKESCPGKSEEKLIKSIINMEMKVPCVKMDSMEEFESLDSPEFENIFVVTDFQNSVFNDLYKADCRIVGPPVILNCAQRGEPLPFSCRPLYCTSMLNLVLCFTGFRKKEELVKLVTLVHHMGGVIRKECNSKVTHLVANCTQGEKFRVAVSLGTPIMKPEWIYKAWERRNEQCFCAAVDDFRNEFKVPPFQDCILSFLGFSDEEKHSMEEMTEMQGGSYLPVGDERCTHLIVEENTVKDLPFEPSKKLFVVKQEWFWGSIQMDARAGETMYLYEKANTPELKKSVSLLSLSTPNSNRKRRRLKETLAQLSRETDLSPFPPRKRPSAEHSLSIGSLLDISNTPESSIHYGETPKSCAKSSRSSTPVPPKQSARWQVAKELYQTESNYVNILATIIQLFQVPLEEEGQRGGPILAPEEIKTIFGSIPDIFDVHMKIKDDLEDLIANWDESRSIGDIFLKYAKDLVKTYPPFVNFFEMSKEMIIKCEKQKPRFHAFLKINQAKPECGRQSLVELLIRPVQRLPSVALLLNDLKKHTADENPDKSTLEKAIGSLKEVMTHINEDKRKTEAQKQIFDVVYEVDGCPANLLSSHRSLVQRVETVSLGEHPCDRGEQVTLFLFNDCLEIARKRHKVIGTFRSPHDRTRPPASLKHIHLMPLSQIKKVLDIRETEDCHNAFALLVRPPTEQANVLLSFQMTSEELPKESWLKMLCRHVANTICKADAENLMYVADPESFEVNTKDMDSTLSRASRAIKKTSKKVTRAFSFSKTPKRALRMALSSSHSSEGRSPPSSGKLAVSRLSSTSSLAGIPSPSLVSLPSFFERRSHTLSRSTTHLI
B4: RACGAP1 (protein, UniProt Q9WVM1 1-628)
chain: MDTTMVNLWTLFEQLVRRMEIINEGNESIEFIQVVKDFEDFRKKYQRTNQELEKFKDLLLKAETGRSALDVKLKHARNQVDVEIKRRQRAEAECAKLEQQIQLIRDILMCDTSGSIQLSEEQKSALAFLNRGQASSGHAGNNRLSTIDESGSILSDISFDKTDESLDWDSSLVKNFKMKKREKRRSNSRQFIDGPPGPVKKTCSIGSTVDQANESIVAKTTVTVPSDGGPIEAVSTIETLPSWTRSRGKSGPLQPVNSDSALNSRPLEPRTDTDNLGTPQNTGGMRLHDFVSKTVIKPESCVPCGKRIKFGKLSLKCRDCRLVSHPECRDRCPLPCIPPLVGTPVKIGEGMLADFVSQASPMIPAIVVSCVNEIEQRGLTEAGLYRISGCDRTVKELKEKFLKVKTVPLLSKVDDIHVICSLLKDFLRNLKEPLLTFWLSKAFMEAAEITDEDNSTAAMYQAVSELPQANRDTLAFLMIHLQRVSQSPDTKMDIANLAKVFGPTIVAHTVPNPDPVTMFQDIKRQLKVVERLLSLPLEYWNQFMMVDQENIDSQRGNGNSTPRTPDVKVSLLGPVTTPEFQLVKTPLSSSLSQRLYNLSKSTPRFGNKSKSATNLGQQGKFFPAPYLK
B5: ARHGEF2 (also called GEFH1) (protein, UniProt Q60875 1-985)
chain: MSRIESLTRARIDRSKEQATKTREKEKMKEAKDARYTNGHLFTTISVSGMTMCYACNKSITAKEALICPTCNVTIHNRCKDTLANCTKVKQKQQKAALLRNNTALQSVSLRSKTTTRERPTSAIYPSDSFRQSLLGSRRGLSSLSLAKSVSTTNIAGHFNDESPLGLRQILSQSTDSLNMRNRTLSVESLIDEGVEVFYNELMSDFEMDEKDFEADSWSLAVDSSFLQQHKKEVMKKQDVIYELIQTELHHVRTLKIMTRLFRTGMLEELQMEPEVVQGLFPCVDELSDIHTRFLNQLLERRRQALCPGSTRNFVIHRLGDLLISQFSGSNAEQMRKTYSEFCSRHTKALKLYKELYARDKRFQQFIRKMTRSAVLKRHGVQECILLVTQRITKYPVLINRILQNSHGVEEEYQDLASALGLVKELLSNVDQDVHELEKEARLQEIYNRMDPRAQTPVPGKGPFGRDELLRRKLIHEGCLLWKTATGRFKDVLLLLMTDVLVFLQEKDQKYIFTSLDKPSVVSLQNLIVRDIANQAKGMFLISSGPPEMYEVHAASRDDRTTWIRVIQQSVRLCPSREDFPLIETEDKAYLRRIKTKLQQKNQALVELLQKNVELFAEMVHFQALKAGFVGMPPPALPRGLFRLESFESLRGERLLKDALREVEGLKDLLLGPCVDLPMTSREPALPLDSDSGSCPGVTANGEARTFNGSIELCRADSDSSQKDRNGNQLRSPQEEVLQPLINLYGLLHGLQAVVVQQERLMEALFPEGPERWEKLSRANSRDGEAGRAAVASVTPEKQATELALLQRQHTLLQEELRRCQRLGEERATEAGSLEARLRESEQARALLEREAEEIRRQLAALGQNEPLPAEAPWARRPLDPRRRSLPAGDALYLSFNPPQPSRGHDRLDLPVTVRSLHRPFDDREAQELGSPEDRLQDSSDPDTGSEEEVSSRLSPPHSPRDFTRMQDIPEETESRDGEPTASES

Chains of the proteins cited; added tags and fusions are not shown.
UniProt P70335: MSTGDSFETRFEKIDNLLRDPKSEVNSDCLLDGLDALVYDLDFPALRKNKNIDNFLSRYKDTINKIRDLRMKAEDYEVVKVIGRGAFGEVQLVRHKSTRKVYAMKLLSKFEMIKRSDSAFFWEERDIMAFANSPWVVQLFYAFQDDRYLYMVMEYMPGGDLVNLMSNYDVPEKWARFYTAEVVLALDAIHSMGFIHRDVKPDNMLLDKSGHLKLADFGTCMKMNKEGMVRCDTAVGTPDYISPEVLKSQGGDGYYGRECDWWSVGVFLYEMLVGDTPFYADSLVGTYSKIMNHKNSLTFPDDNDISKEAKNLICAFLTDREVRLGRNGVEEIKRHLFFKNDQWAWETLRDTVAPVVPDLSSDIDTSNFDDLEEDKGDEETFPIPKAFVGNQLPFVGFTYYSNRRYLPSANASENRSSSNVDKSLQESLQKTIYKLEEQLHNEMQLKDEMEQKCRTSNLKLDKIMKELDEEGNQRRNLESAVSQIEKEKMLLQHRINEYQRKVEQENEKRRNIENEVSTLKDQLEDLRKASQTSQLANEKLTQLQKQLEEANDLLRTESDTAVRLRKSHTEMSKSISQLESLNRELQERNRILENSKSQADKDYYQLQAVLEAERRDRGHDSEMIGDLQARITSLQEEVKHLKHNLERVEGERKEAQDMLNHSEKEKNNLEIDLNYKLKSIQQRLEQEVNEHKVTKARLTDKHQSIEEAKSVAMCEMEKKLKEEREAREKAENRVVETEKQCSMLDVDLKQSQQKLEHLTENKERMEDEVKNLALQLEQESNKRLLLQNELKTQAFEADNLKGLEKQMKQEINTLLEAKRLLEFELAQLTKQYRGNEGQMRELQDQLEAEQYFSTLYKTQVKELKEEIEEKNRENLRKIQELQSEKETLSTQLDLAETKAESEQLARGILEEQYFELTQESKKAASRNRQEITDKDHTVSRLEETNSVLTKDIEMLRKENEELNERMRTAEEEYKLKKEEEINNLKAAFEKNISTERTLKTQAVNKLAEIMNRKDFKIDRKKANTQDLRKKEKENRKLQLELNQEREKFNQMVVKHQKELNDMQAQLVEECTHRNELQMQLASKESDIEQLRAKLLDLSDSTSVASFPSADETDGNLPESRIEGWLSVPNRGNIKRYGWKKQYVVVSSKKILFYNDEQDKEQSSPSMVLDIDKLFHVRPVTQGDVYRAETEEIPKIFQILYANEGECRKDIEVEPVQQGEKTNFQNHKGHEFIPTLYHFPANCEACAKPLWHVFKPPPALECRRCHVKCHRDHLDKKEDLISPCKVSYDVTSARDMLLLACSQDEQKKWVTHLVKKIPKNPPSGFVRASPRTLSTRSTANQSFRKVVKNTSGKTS

No constants are given. Whether binding was seen depends on the method and setting. In cells and extracts the contact can be indirect. Some results given as binding are weak or reduced against the parent protein; the word gives no strength. Where a sequence is shown, tags or fusion partners need not be part of it.

One experiment deals with T1, human PKP4 N-terminally tagged with EGFP (EGFP-PKP4-WT) (human) (UniProt Q99569).
T1 sequence: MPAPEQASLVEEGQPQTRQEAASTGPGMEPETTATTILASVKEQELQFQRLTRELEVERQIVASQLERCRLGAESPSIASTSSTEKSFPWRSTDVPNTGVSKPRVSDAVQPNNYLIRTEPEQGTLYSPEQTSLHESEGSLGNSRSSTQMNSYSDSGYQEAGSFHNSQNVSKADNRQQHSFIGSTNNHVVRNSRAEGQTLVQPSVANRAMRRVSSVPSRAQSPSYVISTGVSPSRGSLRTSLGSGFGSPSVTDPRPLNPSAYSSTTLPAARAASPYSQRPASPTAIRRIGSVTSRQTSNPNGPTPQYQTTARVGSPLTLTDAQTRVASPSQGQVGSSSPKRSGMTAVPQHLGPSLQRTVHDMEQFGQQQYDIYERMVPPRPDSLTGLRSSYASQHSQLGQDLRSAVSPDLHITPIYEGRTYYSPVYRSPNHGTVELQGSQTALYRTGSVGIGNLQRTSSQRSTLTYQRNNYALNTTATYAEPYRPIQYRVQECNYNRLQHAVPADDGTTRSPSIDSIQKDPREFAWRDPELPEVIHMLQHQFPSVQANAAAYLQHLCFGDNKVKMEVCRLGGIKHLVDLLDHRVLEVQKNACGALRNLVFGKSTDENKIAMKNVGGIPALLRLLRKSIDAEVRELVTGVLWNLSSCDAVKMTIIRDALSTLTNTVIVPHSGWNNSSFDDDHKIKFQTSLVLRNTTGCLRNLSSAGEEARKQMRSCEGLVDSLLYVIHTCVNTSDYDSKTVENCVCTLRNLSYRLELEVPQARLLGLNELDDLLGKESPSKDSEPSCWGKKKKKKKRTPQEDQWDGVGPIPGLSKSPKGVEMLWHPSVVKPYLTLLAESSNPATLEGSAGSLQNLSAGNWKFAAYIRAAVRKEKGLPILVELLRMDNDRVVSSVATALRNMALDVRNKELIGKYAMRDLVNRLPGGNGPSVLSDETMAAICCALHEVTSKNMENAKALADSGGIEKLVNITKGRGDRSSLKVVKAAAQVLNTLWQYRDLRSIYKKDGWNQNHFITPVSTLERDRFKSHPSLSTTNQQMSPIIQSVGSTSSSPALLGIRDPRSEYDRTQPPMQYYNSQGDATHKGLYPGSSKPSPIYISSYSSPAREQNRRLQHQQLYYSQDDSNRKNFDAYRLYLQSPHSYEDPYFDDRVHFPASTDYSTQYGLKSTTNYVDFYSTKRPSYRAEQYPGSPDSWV
Nature of the experiment: co-IP; GFP-Trap Agarose on lysates of PKP4-KO + GFP-PKP4 (Rescue) keratinocytes, WT + GFP cells as control; IP buffer 20 mM Tris-HCl pH 7.5, 137 mM NaCl, 2 mM EDTA, 10% glycerol, 1% NP-40; 1 h at 4 °C; western blot. A general note: A western blot detects proteins with antibodies after separation by electrophoresis.
Take “ROCK1 (from UniProt P70335 1-1354) (enzyme)”: the binding entry was “no binding”.

In another experiment the target is T1, human PKP4 N-terminally tagged with EGFP (EGFP-PKP4-WT) (human). The experiment is described as above. This is another data set of the same source.
For the molecule B1, the binding result is “binds”.

Turning to B2, the binding entry is recorded as “binds”.

As for B3, the binding result is “binds”.

B4: the binding result is “binds”.

B5: the binding result is on record as “binds”.

(Values after paper PMC11335210.)
